Reference: patent US20230277682A1 (priority 2022, published 2023)

Test system: VSVAG expressing the spike protein of SARS-CoV-2
Format: cell-based

B1: 10987-12b (conjugate)
heavy: QVQLVESGGGVVQPGRSLRLSCAASGFTFSNYAMYWVRQAPGKGLEWVAVISYDGSNKYYADSVKGRFTISRDNSKNTLYLQMNSLRTEDTAVYYCASGSDYGDYLLVYWGQGTLVTVSS[human IgG1 constant region omitted here]
light: QSALTQPASVSGSPGQSITISCTGTSSDVGGYNYVSWYQQHPGKAPKLMIYDVSKRPSGVSNRFSGSKSGNTASLTISGLQSEDEADYYCNSLTSISTWVFGGGTKLTVLGQPKAAPSVTLFPPSSEELQANKATLVCLISDFYPGAVTVAWKADSSPVKAGVETTTPSKQSNNKYAASSYLSLTPEQWKSHRSYSCQVTHEGSTVEKTVAPTECS
  Fold Increase over Parental Antibody: 3.5 fold

B2: 10987-HC-Cterm-LLQGA-10b (conjugate)
heavy: QVQLVESGGGVVQPGRSLRLSCAASGFTFSNYAMYWVRQAPGKGLEWVAVISYDGSNKYYADSVKGRFTISRDNSKNTLYLQMNSLRTEDTAVYYCASGSDYGDYLLVYWGQGTLVTVSS[human IgG1 constant region and a few adjoining residues omitted here]
light: B1 light
  Fold Increase over Parental Antibody: 2.5 fold
